This passage reports survival results from PubChem BioAssay AID463173 (ICCB-Longwood Screening Facility, Harvard Medical School, 2010).

About 1,700 (3.3%) of roughly 52,000 compounds were called active. Rule as the data show it: active = survival mostly below about 52% (no sharp cut-off); inactive = mostly above about 56%. The list shows a part of the results.

The test system of this experiment is Wild type. Put plainly: growth inhibition of S. aureus wild type versus tarO mutant, primary screen, teichoic acid synthesis inhibitors, RN4220, OD600 (AID 463173). The following applies: S. aureus RN4220 wild type/DeltatarO growth, OD600, 18 h, active compounds read low, screened at 18.75 µg/mL (by protocol).
Take `COc1cc2cc(C(=O)Nc3ccccc3)c(N)nc2cc1OC`: the survival was inactive: 113%.
In the case of `Cc1ccc(S(=O)(=O)N2CCCc3cc(NS(=O)(=O)c4cc(C)ccc4C)ccc32)cc1`, the survival was inactive: 77%.
For `COc1ccc2[nH]c3c(c2c1)CCN(C(=O)c1cccc(Cl)c1)C3c1ccc(F)cc1` (stereo not drawn) the value was inactive: 79%.
For `CCOC(=O)c1cc(-c2ccc(F)cc2)n(CC(=O)NC2CCCCCC2)c1C` the value was inactive: 71%.
In the case of `CC1(C)CC(=O)C=C(NCCc2ccccc2)C1` it was inactive: 126%; in that of `Cc1nc2sccn2c(=O)c1S(=O)(=O)Nc1cc(Cl)ccc1O`, inactive: 82%; in that of `CCCCN1CCc2nc(Nc3ccc(OC)cc3OC)ncc2C1`, inactive: 73%.
With `Cc1ccc(CN(Cc2ccco2)C(=O)c2ccc(OCC(C)C)cc2)cc1`, the survival is inactive: 90%.
For `COc1ccc(NC(=O)c2c(NC(=O)COc3ccccc3)sc3c2CCC(C(C)(C)C)C3)cc1` (stereo not drawn) the value was inactive: 77%; for `C/C(=N/OC(=O)CSc1nc(-c2ccco2)cc(C(F)(F)F)n1)c1ccccc1`, inactive: 88%; for `Cc1ccc2c(c1)N(C(=O)N1CCC(C(=O)NCCc3ccc(Cl)cc3)CC1)CC(C)O2` (stereo not drawn), inactive: 87%.
For `Cc1ccc(C)c(N2CCN(C(=O)c3cc4c(=O)n(Cc5ccccc5)ccc4nc3C)CC2)c1` the value was inactive: 85%.
For `CCOc1cccc2c1N[C@@H](c1ccc(C(=O)O)cc1)[C@H]1CC=C[C@@H]21` the value was inactive: 78%; for `Cc1cccc(NS(=O)(=O)c2ccc3[nH]c4c(c3c2)CCCCCC4)c1`, inactive: 64%; for `Cc1ccc(-n2nc(C)c3c(C)c(CCC(=O)NCc4ccccc4Cl)c(C)nc32)cc1C`, inactive: 82%.
As to `COc1ccc(NC(=O)C(Cc2ccccc2)NS(=O)(=O)c2ccc3c(c2)CCC(=O)N3)c(OC)c1` (stereo not drawn), the survival is inactive: 101%.
For `CCc1ccc(NC(=O)CN2C(=O)C(c3ccc(C)cc3)=NC23CCCCC3)cc1` the value was inactive: 77%; for `Cc1cccc(Cn2cccc2CNS(=O)(=O)c2ccccc2F)c1`, active: -4%; for `CCc1ccc(CNC(=O)Cn2nc(C)n3c(cc4cc(C)ccc43)c2=O)cc1`, inactive: 81%.
In the case of `CCOC(=O)c1cccc(NC(=O)c2cc3ccccn3n2)c1` it was inactive: 135%.
In the case of `Cc1nonc1OCCNC(=O)C12CC3CC(CC(C3)C1)C2` it was inactive: 109%; in that of `O=C(Cn1c(=O)n(CC2CCC(C(=O)NCCc3ccccc3)CC2)c(=O)c2ccccc21)Nc1ccccc1` (stereo not drawn), inactive: 136%.
In the case of `COc1ccc2sc(N(Cc3cccnc3)C(=O)C3CCCCC3)nc2c1`, the survival is inactive: 81%.
Regarding `CCCCOc1ccc(C2=NC(c3ccncc3)=Nc3ccc(OCC)cc3N2)cc1`, the survival was inactive: 90%.
In the case of `CCOc1ccccc1CNC(=O)C1CCN(c2nnc(-n3c(C)ccc3C)s2)CC1` it was inactive: 85%.
In the case of `Cc1cc(C)n2nc(CNS(=O)(=O)c3ccc(C)c(C)c3)nc2n1` it was inactive: 84%; in that of `CC(C)OCCCn1c(SCC(=O)c2ccccc2)nc2c(sc3ccccc32)c1=O`, inactive: 72%.
As for `Cc1nn(-c2ccc(F)cc2)c(-n2cccc2)c1C(=O)NCCc1ccc(Cl)cc1`, the survival was inactive: 54%.
In the case of `CCN(CC)CCOC(=O)c1ccc(NC(=O)Cn2ncc3c2-c2cc(C)ccc2OC3)cc1` it was inactive: 72%.
For `O=C(C1CCN(S(=O)(=O)c2cccc3nonc23)CC1)N1CCN(c2cccc(Cl)c2)CC1` the value was inactive: 56%.
On to `COc1ccc(NC(=O)CSc2nc3nc(C)c(Cc4ccccc4)c(C)n3n2)cc1OC`, for which the survival was inactive: 60%.
For `Cc1ccc(Cn2c(=O)c3ccccc3n3c(-c4cccc(O)c4)nnc23)cc1` the value was inactive: 92%.
In the case of `CCOc1ccc(C2CC(c3c(O)n(C4CCCCC4)c(=O)[nH]c3=O)=Nc3ccccc3S2)cc1` (stereo not drawn) it was inactive: 83%.
`O=C(Nc1sc2c(c1C(=O)NCc1cccnc1)CCCC2)c1cc(=O)c2ccccc2o1`: the survival is inactive: 90%.
In the case of `Cc1ccc2nc(COc3ccccc3NC(=O)C(C)(C)C)cc(=O)n2c1` it was inactive: 66%.
For `COc1cccc(CNC(=O)c2ccc(-c3nc(COc4ccccc4)c(C)o3)cc2)c1` the value was inactive: 80%.
In the case of `Cc1ccc(CCNC(=O)c2cc3c(s2)-c2c(C)cccc2OC3)cc1` it was inactive: 88%; in that of `CCOC(=O)N1CCc2c(sc3c2c(=O)n(-c2ccccc2C(F)(F)F)c(=O)n3Cc2ccccc2C)C1`, inactive: 121%; in that of `CN1C(=O)/C(=C/C=C2/Sc3ccccc3N2CCO)SC1=S`, inactive: 112%.
As for `O=C(CSc1nnc2ccc3ccccc3n12)Nc1ccccc1Cl`, the survival is inactive: 72%.
Turning to `Cc1ccc(NS(=O)(=O)c2ccc(-n3cccn3)cc2)cc1Cl`, the survival was inactive: 72%.
For `O=C(Cc1ccc(F)cc1)NCc1ccc2c(c1)CCN2C(=O)c1ccc(F)cc1` the value was inactive: 76%; for `COC(=O)c1cc2oc3ccccc3c2n1CC(=O)Nc1ccc(Cl)cc1F`, inactive: 125%; for `COc1cccc(-n2c(SCC(=O)Nc3c(C)cc(C)cc3C)nc3c([nH]c4ccccc43)c2=O)c1`, inactive: 69%.
For `Cc1ccc(C(c2nnnn2CS(=O)(=O)c2ccc(C)cc2)N2CCCC2)cc1` (stereo not drawn) the value was inactive: 101%; for `COc1cccc2c1cc1c(=O)n(CC(=O)NCc3ccc(C)o3)nc(C)n12`, inactive: 82%.
In the case of `O=C(Nc1ccccc1)N(C1=NCCCCS1)c1ccccc1` it was inactive: 112%; in that of `O=C(COc1ccc(Cl)cc1)Nc1ccc2nc(SCC(=O)N3CCCC3)sc2c1`, inactive: 75%.
Turning to `COc1ccc(OC)c(NC(=O)CSc2ccc(-c3sc(C)nc3C)nn2)c1`, the survival was inactive: 88%.
In the case of `CCN(CC)S(=O)(=O)c1ccc(-c2nnc(SCC(=O)O)n2CC)cc1`, the survival was inactive: 101%.
For the compound `COc1ccc(CCNC(=O)c2ccc3c(c2)N(Cc2ccc(F)cc2)C(=O)CS3)cc1OC`, the survival is inactive: 121%.
In the case of `Cc1cccc(-c2nc(CCNC(=O)Cc3ccccc3)cs2)c1` it was active: -1%.
In the case of `CCn1c(=O)cc(SCC(=O)NCc2ccc(OC)cc2OC)c2ccccc21` it was inactive: 71%.
For `Cc1nn(C(=O)c2cccc(Cl)c2)c(C)c1S(=O)(=O)N1CCOCC1` the value was inactive: 99%; for `COc1ccc(CCNC(=O)C(=O)NCC(c2ccco2)S(=O)(=O)c2cccs2)cc1OC` (stereo not drawn), inactive: 85%; for `CCC(=O)N1CCc2cc(S(=O)(=O)NC(CC(C)C)C(=O)NCCc3ccccc3)ccc21` (stereo not drawn), inactive: 127%.
Turning to `O=C(COc1ccccc1-c1nc(-c2ccccc2)no1)Nc1cccc([N+](=O)[O-])c1`, the survival was inactive: 83%.
On to `O=C(c1nc(-c2ccc(Cl)cc2)n2c1CCCCC2)N1CCN(c2ccccc2)CC1`, for which the survival was inactive: 69%.
In the case of `CCOC(=O)c1c(-c2ccccc2)oc2ccc(N(C(C)=O)S(=O)(=O)c3ccc(CC)cc3)cc12` it was inactive: 83%; in that of `CCOc1ccccc1C(=O)NC1CCN(Cc2nnnn2C2CCCC2)CC1`, inactive: 121%; in that of `CC(=O)N1CCc2nc3sc(C(=O)Nc4ccc(Cl)cc4F)c(N)c3c(C(F)(F)F)c2C1`, inactive: 107%.
For `CCOc1ccccc1NC(=O)Cn1c(=O)ccc2cc(S(=O)(=O)N3CCCC3)ccc21` the value was active: -3%; for `CC(Oc1ccccc1)C(=O)Nc1nnc2n1CCS2` (stereo not drawn), inactive: 83%.
For `COc1cc(-c2nc3nc(C)cc(C)n3c2Nc2ccc(Cl)cc2)ccc1O` the value was inactive: 82%.
`COc1ccc(Cn2c(C(=O)O)c(CNCc3ccc(C)o3)c3ccc(C)cc32)cc1`: the survival is inactive: 63%.
For `CCOC(=O)Nc1ccc2c(c1)Nc1ccccc1S2` the value was inactive: 124%; for `O=C(c1cc2ccc3cccnc3c2[nH]1)N1CCN(c2ccccc2)CC1`, inactive: 59%.
In the case of `COc1ccc2[nH]c(=O)c(CN(Cc3cccs3)S(=O)(=O)c3cccc4nsnc34)cc2c1` it was inactive: 112%; in that of `COc1ccc(C(=O)Nc2ccc(-c3nnc4n3CCCCC4)cc2)cc1OC`, inactive: 65%; in that of `CCOC(=O)c1ccc2ncc3c(-c4ccccc4)nn(-c4ccc(F)c(Cl)c4)c3c2c1`, inactive: 108%.
For `CC(C)c1nc2ccc(C(=O)NC(C)c3ccccc3)cc2o1` (stereo not drawn) the value was inactive: 121%; for `Cc1cccc(NC(=O)N2CCCC2C(=O)Nc2ccccc2)c1` (stereo not drawn), inactive: 101%; for `O=C(NC1CCCC1)c1ccc(CSc2nc3cccnc3n2Cc2ccc(F)cc2)cc1`, inactive: 45%.
For `CCc1ccccc1N1CC(c2nc3ccccc3n2CCCCOc2ccccc2)CC1=O` (stereo not drawn), the survival was active: 19%.
In the case of `COc1cccc(/C=C/C(=O)Nc2ccc3nc(N4CCN(C)CC4)cc(C)c3c2)c1OC` it was inactive: 53%; in that of `CC(=O)c1ccc(N2CCN(S(=O)(=O)c3ccc4c(c3)C(C)(C)C(=O)N4)CC2)cc1`, inactive: 75%; in that of `CCCn1c2ccccc2c2cnn(CC(=O)N(CCCOC)Cc3ccco3)c(=O)c21`, inactive: 85%.
For `Oc1ccccc1-c1nc(/C=C/c2ccc(F)cc2)nn1-c1ccccc1` the value was inactive: 34%; for `CCOc1ccc(NC(=O)CSc2ncc3c(n2)-c2ccccc2N(Cc2ccccc2C)S3(=O)=O)cc1`, inactive: 63%.
In the case of `CCOc1ccc(OCC)c(S(=O)(=O)n2cnc3cc(C)c(C)cc32)c1` it was inactive: 110%; in that of `COc1ccc(-c2nc(SCCOc3ccccc3Cl)n3[nH]c(=O)cc3n2)cc1`, inactive: 73%; in that of `COc1cc(NC(=O)CSc2ncccc2C(=O)OC(C)C)cc(OC)c1`, inactive: 83%.
As to `COc1ccc(CCNC(=O)CS(=O)Cc2nc(-c3ccccc3F)oc2C)cc1OC` (stereo not drawn), the survival is inactive: 83%.
For `Cc1cc(C(=O)NCc2ccccc2Cl)c2c(C)nn(-c3ccccc3)c2n1` the value was inactive: 72%; for `CCN1C(C(=O)c2ccccc2)=C(OC(=O)c2ccccc2OC)c2ccccc2S1(=O)=O`, inactive: 81%; for `CC(=O)c1cc2c(cc1N/C(=N/S(=O)(=O)c1ccc(C)cc1)c1ccc(F)cc1)OCO2`, inactive: 82%.
In the case of `Cc1cc(NC(=O)CNCC2CCCCC2)no1` it was inactive: 104%; in that of `CCOc1ccc(-c2nc(CSCC(=O)NCc3ccc(Cl)cc3)c(C)o2)cc1`, inactive: 87%.
